Substitutions are numbered along the chain they refer to.
B1: huAb13v1-XW (conjugate)
heavy: EVQLQESGPGLVKPSETLSLTCAVTGYSITSGYSWHWIRQFPGNGLEWMGYIHSSGSTNYNPSLKSRISISRDTSKNQFFLKLSSVTAADTAVYYCAGYDDYFEYWGQGTTVTVSSASTKGPSVFPLAPSSKSTSGGTAALGCLVKDYFPEPVTVSWNSGALTSGVHTFPAVLQSSGLYSLSSVVTVPSSSLGTQTYICNVNHKPSNTKVDKKV[letters of human IgG1 Fc with changes omitted]
light: DIQMTQSPSSLSASVGDRVTITCKASQNVGFNVAWYQQKPGKSPKALIYSASYRYSGVPSRFSGSGSGTDFTLTISSLQPEDFAEYFCQQYNWYPFTFGQGTKLEIKRTVAAPSVFIFPPSDEQLKSGTASVVCLLNNFYPREAKVQWKVDNALQSGNSQESVTEQDSKDSTYSLSSTLTLSKADYEKHKVYACEVTHQGLSSPVTKSFNRGEC
B2: huAb3v2.5-XW (conjugate)
heavy: EVQLVQSGAEVKKPGSSVKVSCKASGYTFSSYWMHWVRQAPGQGLEWIGLIHPESGSTNYNEMFKNRATLTVDRSTSTAYMELSSLRSEDTAVYYCAGGGRLYFDYWGQGTTVTVSSASTKGPSVFPLAPSSKSTSGGTAALGCLVKDYFPEPVTVSWNSGALTSGVHTFPAVLQSSGLYSLSSVVTVPSSSLGTQTYICNVNHKPSNTKVDKKV[letters of human IgG1 Fc with changes omitted]
light: DIVMTQSPLSLPVTPGEPASISCRSSQSLVHSNRDTYLRWYLQKPGQSPQLLIYKVSNRFSGVPDRFSGSGSGTDFTLKISRVEAEDVGVYYCSQSTHVPYTFGGGTKVEIKRTVAAPSVFIFPPSDEQLKSGTASVVCLLNNFYPREAKVQWKVDNALQSGNSQESVTEQDSKDSTYSLSSTLTLSKADYEKHKVYACEVTHQGLSSPVTKSFNRGEC
B3: huAb3v2.6-AAA (conjugate)
heavy: EVQLVQSGAEVKKPGSSVKVSCKASGYTFSSYWMHWVRQAPGQGLEWIGLIHPESGSTNYNEMFKNRATLTVDRSTSTAYMELSSLRSEDTAVYYCAGGGRLYFDYWGQGTTVTVSSASTKGPSVFPLAPSSKSTSGGTAALGCLVKDYFPEPVTVSWNSGALTSGVHTFPAVLQSSGLYSLSSVVTVPSSSLGTQTYICNVNHKPSNTKVDKKV[letters of human IgG1 Fc with changes omitted]
light: B2 light with R34Q
B4: huAb3v2.6-XW (conjugate)
heavy: EVQLVQSGAEVKKPGSSVKVSCKASGYTFSSYWMHWVRQAPGQGLEWIGLIHPESGSTNYNEMFKNRATLTVDRSTSTAYMELSSLRSEDTAVYYCAGGGRLYFDYWGQGTTVTVSSASTKGPSVFPLAPSSKSTSGGTAALGCLVKDYFPEPVTVSWNSGALTSGVHTFPAVLQSSGLYSLSSVVTVPSSSLGTQTYICNVNHKPSNTKVDKKV[letters of human IgG1 Fc with changes omitted]
light: B2 light with R34Q

Test system: NCI-H146 cells
Test: In vivo xenograft model of small cell lung cancer (NCI-H146)
Design: species or system mice
Conditions: Table 24; 6 mg/kg/IP/QDx1

In order of rising “TGImax (%)” value:
1. B1  35%
2. B4  43%
3. B3  47%
4. B2  51%

Test system: not listed separately
Test: Aggregation of conjugates by SEC
Assay type: physicochemical
Conditions: ADC as conjugated (Method A, E or G)

In order of falling “% agg by SEC” value:
1. B3  20.2%
2. B4  16.8%
3. B2  16.4%
4. B1  6.3%

Test system: not listed separately
Test: DAR of ADC by LC-MS
Conditions: ADC as conjugated (Method A, E or G)
Method: The DAR and percentage aggregation of ADCs synthesized were determined by LC-MS and size exclusion chromatography (SEC), respectively.
LC-MS analysis was performed using an Agilent 1100 HPLC system interfaced to an Agilent LC/MSD TOF 6220 ESI mass spectrometer. The ADC was reduced with 5 mM (final concentration) Bond-Breaker® TCEP solution (Thermo Scientific, Rockford, Ill.), loaded onto a Protein Microtrap (Michrom Bioresorces, Auburn, Calif.) desalting cartridge, and eluted with a gradient of 10% B to 75% B in 0.2 minutes at ambient temperature. Mobile phase A was H2O with 0.1% formic acid (FA), mobile phase B was acetonitrile with 0.1% FA, and the flow rate was 0.2 mL/min. Electrospray-ionization time-of-flight mass spectra of the co-eluting light and heavy chains were acquired using Agilent MassHunter™ acquisition software. The extracted intensity vs. m/z spectrum was deconvoluted using the Maximum Entropy feature of MassHunter software to determine the mass of each reduced antibody fragment. DAR was calculated from the deconvoluted spectrum by summing intensities of the naked and modified peaks for the light chain and heavy chain, normalized by multiplying intensity by the number of drugs attached. The summed, normalized intensities were divided by the sum of the intensities, and the summing results for two light chains and two heavy chains produced a final average DAR value for the full ADC.

In order of falling “DAR by MS” value:
1. B1  4.3
2. B4  4
3. B2  3.9
4. B3  1.9
